No constants are given. Whether binding was seen depends on the method and setting. Binding seen in cells or lysates may run through a third protein. Some binding calls cover weakened binding; strength is not graded here. For some assays here: Sequences can lack the tags named with a protein.

Amino acid sequences for entries named in this document (tags omitted).
UniProt Q7Z5R6: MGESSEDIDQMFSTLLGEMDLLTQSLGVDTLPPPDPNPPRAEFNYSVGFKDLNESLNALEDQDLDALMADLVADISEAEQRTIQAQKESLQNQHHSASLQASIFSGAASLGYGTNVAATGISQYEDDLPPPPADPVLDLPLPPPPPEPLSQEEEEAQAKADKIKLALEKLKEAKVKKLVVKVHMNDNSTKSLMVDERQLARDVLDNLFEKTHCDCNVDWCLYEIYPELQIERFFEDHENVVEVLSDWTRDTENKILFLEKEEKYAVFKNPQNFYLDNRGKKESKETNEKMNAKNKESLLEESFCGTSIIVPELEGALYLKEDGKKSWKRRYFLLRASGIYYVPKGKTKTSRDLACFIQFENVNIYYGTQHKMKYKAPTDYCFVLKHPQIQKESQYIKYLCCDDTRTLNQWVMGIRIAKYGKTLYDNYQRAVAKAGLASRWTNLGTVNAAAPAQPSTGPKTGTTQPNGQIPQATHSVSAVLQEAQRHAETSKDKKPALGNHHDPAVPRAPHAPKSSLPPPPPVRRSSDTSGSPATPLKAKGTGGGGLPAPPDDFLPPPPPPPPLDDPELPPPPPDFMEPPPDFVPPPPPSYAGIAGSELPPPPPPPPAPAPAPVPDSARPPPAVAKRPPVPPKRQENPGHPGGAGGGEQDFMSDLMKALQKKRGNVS

For test [1], the target named is T1, GST-SKAP1 WT (full-length) (human) (UniProt Q86WV1).
T1 sequence: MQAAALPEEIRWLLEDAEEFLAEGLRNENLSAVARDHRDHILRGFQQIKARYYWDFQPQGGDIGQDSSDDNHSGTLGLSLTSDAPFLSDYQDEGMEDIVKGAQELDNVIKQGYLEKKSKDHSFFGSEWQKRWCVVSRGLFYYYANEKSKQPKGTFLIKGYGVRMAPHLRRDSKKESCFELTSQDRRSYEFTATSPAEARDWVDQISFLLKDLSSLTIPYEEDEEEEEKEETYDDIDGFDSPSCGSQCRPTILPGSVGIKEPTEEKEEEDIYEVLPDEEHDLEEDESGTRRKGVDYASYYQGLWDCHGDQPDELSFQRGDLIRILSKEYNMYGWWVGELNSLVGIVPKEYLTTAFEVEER
In words: pull-down; GST full-length SKAP1 WT and S31A used to co-precipitate Flag-PLK1 expressed in 293T cells; only the target purified.

The target in a further test is T2, GFP-tagged SKAP1 (human) (UniProt Q86WV1).
T2 sequence: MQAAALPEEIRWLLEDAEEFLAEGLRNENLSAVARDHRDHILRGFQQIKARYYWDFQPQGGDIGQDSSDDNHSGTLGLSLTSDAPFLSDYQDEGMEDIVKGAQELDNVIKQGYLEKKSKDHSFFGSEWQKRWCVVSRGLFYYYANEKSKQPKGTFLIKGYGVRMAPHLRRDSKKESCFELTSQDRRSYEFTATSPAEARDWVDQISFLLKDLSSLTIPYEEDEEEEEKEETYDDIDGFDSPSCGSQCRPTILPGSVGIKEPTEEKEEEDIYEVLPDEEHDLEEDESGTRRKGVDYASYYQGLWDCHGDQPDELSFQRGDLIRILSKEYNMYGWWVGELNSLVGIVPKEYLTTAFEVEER
Nature of the test: co-IP; 293T cells co-expressing Flag-tagged PLK1, NKD or PBD with GFP-SKAP1; anti-SKAP1 precipitation and, for PBD, anti-Flag precipitation; blotting.

Test [2] deals with T3, GST-SKAP1-N (N-SKAP1; residues 1-104) (human) (UniProt Q86WV1).
T3 sequence: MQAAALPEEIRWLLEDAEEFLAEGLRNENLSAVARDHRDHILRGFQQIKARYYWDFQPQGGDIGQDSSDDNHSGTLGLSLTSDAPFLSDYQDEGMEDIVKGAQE
In words: pull-down; GST fusion proteins of regions of SKAP1 used to co-precipitate endogenous PLK1 from lysates of Hela cells; only the target purified.

A further test deals with T4, GST-SKAP1-SH3 (human) (UniProt Q86WV1).
T4 sequence: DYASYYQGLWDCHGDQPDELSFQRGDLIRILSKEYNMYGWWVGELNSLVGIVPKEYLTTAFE
The description is as above.

Test [3] addresses T5, GST-SKAP1-SK (SK region; residues 209-285) (human) (UniProt Q86WV1).
T5 sequence: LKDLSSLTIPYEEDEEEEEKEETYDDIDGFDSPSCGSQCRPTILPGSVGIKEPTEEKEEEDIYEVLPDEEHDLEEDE
The test is described as above.

For a further test, the target named is Myc-tagged PLK1 (UniProt P53350). In words: co-IP; Hela cells co-transfected with FLAG-tagged PLK1, RIAM, LAT or SKAP1 and Myc-tagged PLK1; anti-Myc precipitation, blotting.
Test [4] concerns the target T6, SKAP1 (endogenous, Jurkat T-cells) (human (endogenous in Jurkat)) (UniProt Q86WV1).
T6 sequence: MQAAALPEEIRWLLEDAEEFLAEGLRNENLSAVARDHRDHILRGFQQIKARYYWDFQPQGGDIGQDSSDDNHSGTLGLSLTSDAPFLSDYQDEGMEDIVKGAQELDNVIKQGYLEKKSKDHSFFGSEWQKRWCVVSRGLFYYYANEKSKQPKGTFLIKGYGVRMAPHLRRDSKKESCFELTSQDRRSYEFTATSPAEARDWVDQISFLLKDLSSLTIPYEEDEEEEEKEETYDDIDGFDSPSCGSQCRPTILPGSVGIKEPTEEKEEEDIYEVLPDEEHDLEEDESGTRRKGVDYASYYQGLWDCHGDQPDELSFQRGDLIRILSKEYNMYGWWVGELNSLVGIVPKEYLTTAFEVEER
In words: proximity ligation; Duolink in situ PLA with anti-PLK1 and anti-SKAP1 on endogenous proteins in Jurkat cells.

For test [5], the target named is T6, SKAP1 (endogenous, Jurkat T-cells) (human (endogenous in Jurkat)). Nature of the test: co-IP; endogenous proteins from Jurkat T-cells, Triton X-100 lysate, anti-SKAP1 or anti-PLK1 with protein G-Sepharose, blotting; also anti-SKAP1 precipitation 0-8 hours after release from 150 nM nocodazole (16 hours).
In test [6] the target is Polo-like kinase 1 (PLK1) (endogenous, Jurkat T-cells) (human (endogenous in Jurkat)) (UniProt P53350). Described as above.

With “Flag-tagged PLK1 WT (from UniProt P53350 1-603) (enzyme)”, the binding entry (in [1]; with GFP-tagged SKAP1 (human)) was “binds” each time. Take “Polo-like kinase 1 (PLK1) (endogenous, Hela lysate) (from UniProt P53350 1-603) (enzyme)”: the binding result in [2] is reported as “binds”; with GST-SKAP1-SH3 (human), “no binding”; in test [3], “no binding”. With “RIAM tagged with FLAG (from UniProt Q7Z5R6 1-666)”, the binding result in the test with Myc-tagged PLK1 is “no binding”. Consider “Polo-like kinase 1 (PLK1) (endogenous, Jurkat T-cells) (from UniProt P53350 1-603) (enzyme)”, for which the binding entry in test [4] and in test [5] was “binds” throughout.

B1: SKAP1 (endogenous, Jurkat T-cells) (protein, UniProt Q86WV1 1-359)
chain: MQAAALPEEIRWLLEDAEEFLAEGLRNENLSAVARDHRDHILRGFQQIKARYYWDFQPQGGDIGQDSSDDNHSGTLGLSLTSDAPFLSDYQDEGMEDIVKGAQELDNVIKQGYLEKKSKDHSFFGSEWQKRWCVVSRGLFYYYANEKSKQPKGTFLIKGYGVRMAPHLRRDSKKESCFELTSQDRRSYEFTATSPAEARDWVDQISFLLKDLSSLTIPYEEDEEEEEKEETYDDIDGFDSPSCGSQCRPTILPGSVGIKEPTEEKEEEDIYEVLPDEEHDLEEDESGTRRKGVDYASYYQGLWDCHGDQPDELSFQRGDLIRILSKEYNMYGWWVGELNSLVGIVPKEYLTTAFEVEER
Take B1: the binding entry in test [6] is listed as “binds”.

B2: SKAP1 tagged with FLAG (protein, UniProt Q86WV1 1-359)
chain: MQAAALPEEIRWLLEDAEEFLAEGLRNENLSAVARDHRDHILRGFQQIKARYYWDFQPQGGDIGQDSSDDNHSGTLGLSLTSDAPFLSDYQDEGMEDIVKGAQELDNVIKQGYLEKKSKDHSFFGSEWQKRWCVVSRGLFYYYANEKSKQPKGTFLIKGYGVRMAPHLRRDSKKESCFELTSQDRRSYEFTATSPAEARDWVDQISFLLKDLSSLTIPYEEDEEEEEKEETYDDIDGFDSPSCGSQCRPTILPGSVGIKEPTEEKEEEDIYEVLPDEEHDLEEDESGTRRKGVDYASYYQGLWDCHGDQPDELSFQRGDLIRILSKEYNMYGWWVGELNSLVGIVPKEYLTTAFEVEER
In the case of B2, the binding entry with Myc-tagged PLK1 is reported as “binds”.

B3: LAT tagged with FLAG (protein, UniProt O43561 1-262)
chain: MEEAILVPCVLGLLLLPILAMLMALCVHCHRLPGSYDSTSSDSLYPRGIQFKRPHTVAPWPPAYPPVTSYPPLSQPDLLPIPRSPQPLGGSHRTPSSRRDSDGANSVASYENEGASGIRGAQAGWGVWGPSWTRLTPVSLPPEPACEDADEDEDDYHNPGYLVVLPDSTPATSTAAPSAPALSTPGIRDSAFSMESIDDYVNVPESGESAEASLDGSREYVNVSQELHPGAAKTEPAALSSQEAEEVEEEGAPDYENLQELN
In the case of B3, in the test with Myc-tagged PLK1, the binding result is recorded as “no binding”.

These data come from paper PMC6639320.
